The antibiotic and cytotoxicity screens of Wong et al. (2023)
The other results are listed elsewhere or left out.

Tests used:
[1] = tested on: HSkMC (human skeletal muscle cells); assay: cytotoxicity call (relative viability < 0.9); details: 10 µM
[2] = tested on: HepG2; assay: cytotoxicity call (relative viability < 0.9); details: 10 µM
[3] = tested on: S. aureus RN4220; assay: growth inhibition call (relative growth <= 0.2); details: 50 µM

Compound | cytotoxicity call [1] | cytotoxicity call [2] | growth inhibition call [3]
C[C@H]1CN([C@@H](C)CO)C(=O)c2cc(NC(=O)Nc3ccc4c(c3)OCO4)ccc2O[C@@H]1CN(C)Cc1ccc(-c2ccccc2)cc1 | inactive | active | inactive
CC[C@@H](O[Si](C#C[Si](C(C)C)(C(C)C)C(C)C)(C(C)C)C(C)C)c1cn(Cc2cccc(Cl)c2)nn1 | inactive | inactive | inactive
Cc1noc(C)c1NC(=O)N(C)C[C@@H]1Oc2c(NC(=O)NC(C)C)cccc2C(=O)N([C@@H](C)CO)C[C@@H]1C | inactive | inactive | inactive
CNC[C@H]1Oc2ccc(NC(=O)CCN3CCOCC3)cc2CC(=O)N([C@@H](C)CO)C[C@@H]1C | inactive | inactive | inactive
C[C@H]1CN([C@@H](C)CO)C(=O)c2cccc(NS(C)(=O)=O)c2O[C@H]1CN(C)S(=O)(=O)c1ccc(Cl)cc1 | inactive | inactive | inactive
Cc1ncc([N+](=O)[O-])n1CCO | inactive | inactive | inactive
C[C@@H]1CCCCO[C@H](CN(C)C(=O)Nc2ccccc2)[C@@H](C)CN([C@H](C)CO)C(=O)c2cc(NS(=O)(=O)c3ccccc3)ccc2O1 | inactive | inactive | inactive
Cc1cccc(CO)n1 | inactive | inactive | inactive
CN1C(=O)c2cc(NS(=O)(=O)c3ccc(F)cc3)ccc2OC[C@H]2O[C@@H](CC(=O)NCC(F)(F)F)CC[C@H]21 | inactive | inactive | inactive
CCCCCCCC/C=C\CCCCCCCC(N)=O | inactive | inactive | inactive
COc1ccc(-c2cnc3c(c2)C(=O)N([C@H](C)CO)C[C@H](C)[C@H](CN(C)C(=O)Cc2ccncc2)O3)cc1 | inactive | inactive | inactive
